This is an account of results in paper PMC12136788.

B1: chr1:90030187:90030288:+|3pUTR|ENSG00000162664|unk|FALSE|unique (ssRNA)
RNA: GGGAGUUCUACAGUCCGACGAUCACCCAGUUCAAGUCAUGAUAAUUUCUUGUUAACUAAUCUUGAUUCCACCCUUACCAUGAUAGAUUCAGUUUUCUACACAAGUAUAAGCUUUUAAAAAUGUAAUUCAGAUGAUGUUAAUCUCAACAGAGGAUUGAGCAUCA
B2: chr2:200815332:200815484:+|CDS|ENSG00000082153|unk|FALSE|bound_elsewhere (ssRNA)
RNA: GGGAGUUCUACAGUCCGACGAUCUCAGUUUCAAGACUGUAUUAUUCAAGGCUUAACUGAAACCGGUACUGAUUUGGAAGCAGUAGCUAAGUUUCUUGAUGCUUCUGGAGCAAAACUUGAUUACCGUCGAUAUGCAGAAACACUCAACAGAGGAUUGAGCAUCA
B3: chr20:2117184:2117286:+|CDS|ENSG00000125834|unk|total|mutant (ssRNA)
RNA: GGGAGUUCUACAGUCCGACGAUCGCUCCUGGGGACCUACAUUAAACAGGGGACUGAGAUCGUCCCUGUUGGUGAGGCGCUGCCCGAAAACCCAAAGAUGGAGUUGCACAUCCCCCAAAAACGCAGGACUUCCAUGUCUGAGGGCAACAGAGGAUUGAGCAUCA
B4: chr14:31448131:31448454:-|CDS|ENSG00000129480|control|control|control (ssRNA)
RNA: GGGAGUUCUACAGUCCGACGAUCUGUGACUCUAUGUGAAAAAGAAGUAGCUGCUAAUAGCAAGUGUGCUGAAGCUAGGGUUGUAGUGGAACAUGGCACUUAUGGGAACAGGCAGGUGUUAAAGCUGGACACCAACGGACCAUUCAACAGAGGAUUGAGCAUCA
B5: ENSG00000044574:stop:overlap|stop_codon|ENSG00000044574|stop_codon|NA|stop_codon (ssRNA)
RNA: GGGAGUUCUACAGUCCGACGAUCAUGGAAGUGCAGGCCCUCCCCCAACUGGUGAAGAGGAUACAGCAGAAAAAGAUGAGUUGUAGACACUGAUCUGCUAGUGCUGUAAUAUUGUAAAUACUGGACUCAGGAACUUUUGUUAGGCAACAGAGGAUUGAGCAUCA
B6: chr6:134965076:134965177:-|3pUTR|ENSG00000112339|unk|FALSE|unique (ssRNA)
RNA: GGGAGUUCUACAGUCCGACGAUCAAAGGAACAAUGUGCAAUUGAUAUGUUUUUAGAUGAGAGAGAAAAAUUAAAGCUAAAAUUAGCUGCAAAGAAGUAUUAAUAAUCACCUCUGCAAAAAUUCUAAGUUGCCAACUGGCAAAGCAACAGAGGAUUGAGCAUCA
B7: chr1:158765746:158766682:-|CDS|ENSG00000197403|control|control|control (ssRNA)
RNA: GGGAGUUCUACAGUCCGACGAUCUUGCACUGAUACGUCUAUAAAUGUCCUAGUAGAUUUUGUUAUAAAUUCCUGCAAGAUCCUAGCCACCUUCCUGCUGAUCCUCUGCUCCUAUGUGCAGAUCAUCUGCACAGUGCUCAGAAUCAACAGAGGAUUGAGCAUCA
B8: ENSG00000198589:be:win_7801|CDS|ENSG00000198589|bound_else_gene|NA|bound_elsewhere_windowed (ssRNA)
RNA: GGGAGUUCUACAGUCCGACGAUCGUCUGUGGCUUCUGGGAUAAAAGUUUCAGAGUCUAUUCUACAGACACAGGAAGAUUGAUCCAAGUGGUGUUUGGCCAUUGGGAUGUCGUCACUUGCCUUGCUCGUUCUGAGUCAUAUAUUCAACAGAGGAUUGAGCAUCA
B9: ENSG00000198589:be:win_9501|3pUTR|ENSG00000198589|bound_else_gene|NA|bound_elsewhere_windowed (ssRNA)
RNA: GGGAGUUCUACAGUCCGACGAUCCGAAACAAUGUUAUUUGGUGGUGUAUAAUUCUACUUUUCUAGUAGAUUACUGUGUGGAAUUCUGUGAAAAAUAUUUGAGAAAAGGCCUGUAUUGCAUAAAUAAAUUCUUUGUAUGUUGUGCAACAGAGGAUUGAGCAUCA
B10: chr1:10469171:10469279:-|CDS|ENSG00000160049|unk|FALSE|unique (ssRNA)
RNA: GGGAGUUCUACAGUCCGACGAUCGUGGAUGAUGACGAUUACUUUCUGUGUCUACCUUCCAAUACUAAGUUUGUGGCAUUGGCUAGUAAUGAGAAAUGGGCAUACAACAAUUCAGGUAAGAAACUCUAGCCAUGUAUAAAACGGCAACAGAGGAUUGAGCAUCA
B11: chr11:72192224:72192325:+|CDS|ENSG00000110195|unk|total|mutant (ssRNA)
RNA: GGGAGUUCUACAGUCCGACGAUCAGACAUGGCUCAGCGGAUGACAACACAGCUGCUGCUCCUUCCCGUGUGGGUGGCUGCCGCCGGGGAGGCUCAGACAAGGAUUGCAUGGGCCAGGACUGAGCUUCUCAAUGUCUGCAUGAACAACAGAGGAUUGAGCAUCA
B12: chr6:17764380:17764481:-|CDS|ENSG00000137177|msi1|total|mutant (ssRNA)
RNA: GGGAGUUCUACAGUCCGACGAUCCCAGAGCAUCCCUGAGAAAAACUCCAAAUCACUGUGCAGGACUGGCUCAUGUUCAGAACCCGAUGCCUGCCCCAGCAAAAUCCGCCAGCCAGCCAGGGGAUUCUGCCCCAGGGAGGUGACCAACAGAGGAUUGAGCAUCA
B13: chr8:67434037:67434240:-|three_prime_utr|ENSG00000165078|control|control|control (ssRNA)
RNA: GGGAGUUCUACAGUCCGACGAUCCCCUUGUGAUGACACAUACUGUGGCCCUUUUCCAGAAUCUGAGCCGGAAGUGAAGGCUGUAGCUAACUUCCUUCGAAAACACAGAAAGCACAUUAGGGCUUAUCUCUCCUUUCAUGCAUACAACAGAGGAUUGAGCAUCA
B14: chr19:12317476:12318593:-|three_prime_utr|ENSG00000188868|control|control|control (ssRNA)
RNA: GGGAGUUCUACAGUCCGACGAUCCACCAUUGUCAACAUAAAACAACUCACAGAGCAGAAAAACUCUGUGAGUGUAAAAUAUGUAGGGAAGCCUUCAGUCAUUUUGGUAACUUAAAAGUACAUGAGGCUGGGCACAGUGGCUCACAACAGAGGAUUGAGCAUCA
B15: chr11:214995:215097:+|3pUTR|ENSG00000177963|unk|FALSE|unique (ssRNA)
RNA: GGGAGUUCUACAGUCCGACGAUCCCUCCUUCCUACUGGUUUAGACUACACUUACAACAAGGAAAAUGCCCCUCGUGUGACCAUAGAUUGAGAUUUAUACCACAUACCACACAUAGCCACAGAAACAUCAUCUUGAAAUAAAGACAACAGAGGAUUGAGCAUCA
B16: chr11:119314942:119315043:-|CDS|ENSG00000076706|msi1|FALSE|unique (ssRNA)
RNA: GGGAGUUCUACAGUCCGACGAUCGGGAGACUCUGCCCCUCUUGUAGCCCAGGACCCUUCUCCUCCUCUGUGUCUCCUCCCAUUAGGUCCACAAGGAGAAGCGGACGCUCAUCUUCCGUGUGCGCCAGGGCCAGGGCCAGAGCGCAACAGAGGAUUGAGCAUCA
B17: chr7:30013596:30013706:-|3pUTR|ENSG00000106080|msi1|total|mutant (ssRNA)
RNA: GGGAGUUCUACAGUCCGACGAUCUUAUAUUCAAUAUUUACUUCUUAAGGCCCGCGGAAUAUCCUUCCUGGUUCUUUAAUGGGCCGUCUACCGUAUAUUAUACUACAAUAACAUUGUAUCAUAAGAUAAAGCCGUAAACCAGUCCAACAGAGGAUUGAGCAUCA
B18: chr13:73693106:73693207:-|3pUTR|ENSG00000118922|msi1|FALSE|unique (ssRNA)
RNA: GGGAGUUCUACAGUCCGACGAUCCAGAGAACACAGAGAGGGACAAACACAGCCAUGAACCCCCUGGCACUAGUACCAGCACCUAGUUGGCAAGUAGUGGGUGCAUCUCUCAAGUGAAGUGUAGAUUUGUAUUUAGUCCUGCUUCAACAGAGGAUUGAGCAUCA
B19: chr11:86278520:86278536:+|CDS_3pUTR|ENSG00000074266|msi1_unk|total|mutant (ssRNA)
RNA: GGGAGUUCUACAGUCCGACGAUCUGAUGCCAGUAUUUGGCGCUGGGAUCGACUUCGAUAAAAUACUUUUGCCUAAUCAAAAUCCGAGUGUGUUUGUUGUCUGUGUAAAACCGAAUUAAUGUAUCUUGCCCGUAAGGGCACGUACAACAGAGGAUUGAGCAUCA
B20: chr1:2308404:2308505:+|3pUTR|ENSG00000157933|unk|total|mutant (ssRNA)
RNA: GGGAGUUCUACAGUCCGACGAUCUUCUUUGCUUUUGUUUUCUUUGCGGUUGUUCUGUGUGCAUGGAUUCCACACCUCUGCCGCCGGCCGAUCCGUCAGCGGGCAUUAUUACCGUGUCUUGUAAAGGGUCGGUUUUGUUAUGCACAACAGAGGAUUGAGCAUCA
B21: chr20:58459100:58460789:-|three_prime_utr|ENSG00000198768|control|control|control (ssRNA)
RNA: GGGAGUUCUACAGUCCGACGAUCACAUCAGGAUGGCGGCUCUGGACACCCAUUCAACCCUUCAGACUCCCUCCUGGCAGCUGUAGGGAAGGAACCAUUCUCCUCUGCUCUGUCAUGGAUGGAUGCACAGCCCCACUGCUUCCACAACAGAGGAUUGAGCAUCA
B22: chr4:137519872:137519973:-|3pUTR|ENSG00000189184|unk|total|mutant (ssRNA)
RNA: GGGAGUUCUACAGUCCGACGAUCAACUAUUCAUUUUCCGCUUUUGUCUCCAGUGCAUGAUCUCAUAUUUUUGCUUUUAUUUUCCGUAUAAGAACAUUUAUAAAAUCAUAUUUUUGUUACUGCAAUUGUUUUAUUUGUUGUGUGCAACAGAGGAUUGAGCAUCA

This is one part of the list.

This assay concerns the target T1, UNK ZnF1-6 (called full-length) (human, UniProt Q9C0B0 30-357).
T1 sequence: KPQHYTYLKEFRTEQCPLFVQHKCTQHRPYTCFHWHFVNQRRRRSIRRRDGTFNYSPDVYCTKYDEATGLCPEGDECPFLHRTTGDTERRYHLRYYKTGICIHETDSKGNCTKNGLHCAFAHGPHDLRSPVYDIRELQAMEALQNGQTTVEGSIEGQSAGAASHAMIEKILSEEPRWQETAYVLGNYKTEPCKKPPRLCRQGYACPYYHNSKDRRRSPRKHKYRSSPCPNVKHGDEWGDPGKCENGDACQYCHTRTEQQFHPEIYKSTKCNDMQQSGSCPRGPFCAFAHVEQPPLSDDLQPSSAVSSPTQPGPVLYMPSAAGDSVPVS
Description: nsRBNS (natural sequence RNA bind-n-seq); RBNS binding buffer (assumed for nsRBNS): 25 mM Tris pH 7.5, 150 mM KCl, 3 mM MgCl2, 0.01% Triton X-100, 500 ug/ml BSA, 20 U/ml SUPERase-In, 4 C; UNK is unkempt and MSI1 is Musashi-1; names of the RNAs are library labels; protein concentration not given here; high values mean tight binding.
B1: the binding signal was found to be 0.513 enrichment R.
To B2 belongs 0.189 enrichment R.
To B3 belongs 1.01 enrichment R.
Next, B4: 0.612 enrichment R; B5: 1.08 enrichment R; B6: 0.714 enrichment R.
B7 had a binding signal of 0.543 enrichment R.
For the molecule B8, the binding signal amounted to 0.431 enrichment R.
Next, B9: 0.511 enrichment R; B10: 0.437 enrichment R; B11: 0.739 enrichment R.
Next, B12: 0.736 enrichment R.
To B13 belongs 0.751 enrichment R.
The molecule B14 had a binding signal of 0.481 enrichment R.
Next, B15: 1.35 enrichment R.
To B16 belongs 1.02 enrichment R.
Next, B17: 0.716 enrichment R; B18: 1.63 enrichment R.
B19 registered a binding signal of 0.242 enrichment R.
Next, B20: 0.543 enrichment R.
To B21 belongs 0.592 enrichment R; to B22, 0.904 enrichment R.
